From PMC10284917 come the findings set out here.

Sequences of proteins named here, by UniProt entry; tags and fusion partners are left off.
UniProt Q27J81: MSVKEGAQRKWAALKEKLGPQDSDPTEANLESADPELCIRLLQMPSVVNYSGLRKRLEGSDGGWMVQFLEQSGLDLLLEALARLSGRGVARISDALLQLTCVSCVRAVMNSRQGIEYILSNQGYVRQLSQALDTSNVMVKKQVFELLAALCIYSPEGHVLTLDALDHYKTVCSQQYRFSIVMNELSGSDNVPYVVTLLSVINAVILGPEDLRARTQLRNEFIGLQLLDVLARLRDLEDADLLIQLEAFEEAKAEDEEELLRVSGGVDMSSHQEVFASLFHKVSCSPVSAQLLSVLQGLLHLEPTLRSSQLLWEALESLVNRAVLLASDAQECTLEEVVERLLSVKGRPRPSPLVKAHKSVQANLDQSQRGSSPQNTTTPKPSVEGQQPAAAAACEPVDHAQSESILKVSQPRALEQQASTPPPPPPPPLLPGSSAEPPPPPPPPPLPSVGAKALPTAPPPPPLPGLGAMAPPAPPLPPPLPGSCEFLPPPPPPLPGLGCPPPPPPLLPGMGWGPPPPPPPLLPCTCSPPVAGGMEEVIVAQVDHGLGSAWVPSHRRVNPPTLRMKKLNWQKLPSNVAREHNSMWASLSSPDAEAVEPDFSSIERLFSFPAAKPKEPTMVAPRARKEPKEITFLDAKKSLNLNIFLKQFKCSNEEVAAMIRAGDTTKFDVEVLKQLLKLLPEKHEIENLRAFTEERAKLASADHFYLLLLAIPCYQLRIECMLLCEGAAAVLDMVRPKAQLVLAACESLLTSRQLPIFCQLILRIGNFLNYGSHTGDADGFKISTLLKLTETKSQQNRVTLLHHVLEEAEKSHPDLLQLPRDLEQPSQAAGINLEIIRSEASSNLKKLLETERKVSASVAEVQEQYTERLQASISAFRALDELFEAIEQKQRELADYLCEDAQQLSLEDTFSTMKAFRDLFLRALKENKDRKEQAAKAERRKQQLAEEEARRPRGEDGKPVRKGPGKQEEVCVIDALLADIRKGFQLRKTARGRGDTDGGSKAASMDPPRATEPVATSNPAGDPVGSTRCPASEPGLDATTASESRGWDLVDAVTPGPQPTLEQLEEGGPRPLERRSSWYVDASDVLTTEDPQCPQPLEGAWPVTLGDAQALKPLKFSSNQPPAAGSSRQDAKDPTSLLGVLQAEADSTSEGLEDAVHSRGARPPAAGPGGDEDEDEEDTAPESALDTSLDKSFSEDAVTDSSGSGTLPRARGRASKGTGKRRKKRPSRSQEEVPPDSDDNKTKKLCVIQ

No constants are given. Whether binding was seen depends on the method and setting. In cells and extracts the contact can be indirect. Some entries that bind do so weakly or less than the wild type. Tags and fused reporters may be left off the sequences shown.

B1: Myc-FBXO7-1-74 aa (domain or fragment, UniProt Q9Y3I1 1-74)
chain: MRLRVRLLKRTWPLEVPETEPTLGHLRSHLRQSLLCTWGYSSNTRFTITLNYKDPLTGDEETLASYGIVSGDLI
B2: FBXO11 (protein, UniProt Q86XK2 1-927)
chain: MNSVRAANRRPRRVSRPRPVQQQQQQPPQQPPPQPPQQQPPQQQPPPPPQQQQQQQPPPPPPPPPPLPQERNNVGERDDDVPADMVAEESGPGAQNSPYQLRRKTLLPKRTACPTKNSMEGASTSTTENFGHRAKRARVSGKSQDLSAAPAEQYLQEKLPDEVVLKIFSYLLEQDLCRAACVCKRFSELANDPILWKRLYMEVFEYTRPMMHPEPGKFYQINPEEYEHPNPWKESFQQLYKGAHVKPGFAEHFYSNPARYKGRENMLYYDTIEDALGGVQEAHFDGLIFVHSGIYTDEWIYIESPITMIGAAPGKVADKVIIENTRDSTFVFMEGSEDAYVGYMTIRFNPDDKSAQHHNAHHCLEITVNCSPIIDHCIIRSTCTVGSAVCVSGQGACPTIKHCNISDCENVGLYITDHAQGIYEDNEISNNALAGIWVKNHGNPIIRRNHIHHGRDVGVFTFDHGMGYFESCNIHRNRIAGFEVKAYANPTVVRCEIHHGQTGGIYVHEKGRGQFIENKIYANNFAGVWITSNSDPTIRGNSIFNGNQGGVYIFGDGRGLIEGNDIYGNALAGIQIRTNSCPIVRHNKIHDGQHGGIYVHEKGQGVIEENEVYSNTLAGVWVTTGSTPVLRRNRIHSGKQVGVYFYDNGHGVLEDNDIYNHMYSGVQIRTGSNPKIRRNKIWGGQNGGILVYNSGLGCIEDNEIFDNAMAGVWIKTDSNPTLRRNKIHDGRDGGICIFNGGRGLLEENDIFRNAQAGVLISTNSHPILRKNRIFDGFAAGIEITNHATATLEGNQIFNNRFGGLFLASGVNVTMKDNKIMNNQDAIEKAVSRGQCLYKISSYTSYPMHDFYRCHTCNTTDRNAICVNCIKKCHQGHDVEFIRHDRFFCDCGAGTLSNPCTLAGEPTHDTDTLYDSAPPIESNTLQHN
B3: Myc-FBXO7-1-169 aa (domain or fragment, UniProt Q9Y3I1 1-169)
chain: MRLRVRLLKRTWPLEVPETEPTLGHLRSHLRQSLLCTWGYSSNTRFTITLNYKDPLTGDEETLASYGIVSGDLICLILQDDIPAPNIPSSTDSEHSSLQNNEQPSLATSSNQTSMQDEQPSDSFQGQAAQSGVWNDDSMLGPSQNFEAESIQDNAHMAEGTGFYPSEPM
B4: FBXO31 (protein, UniProt Q5XUX0 1-539)
chain: MAVCARLCGVGPSRGCRRRQQRRGPAETAAADSEPDTDPEEERIEASAGVGGGLCAGPSPPPPRCSLLELPPELLVEIFASLPGTDLPSLAQVCTKFRRILHTDTIWRRRCREEYGVCENLRKLEITGVSCRDVYAKLLHRYRHILGLWQPDIGPYGGLLNVVVDGLFIIGWMYLPPHDPHVDDPMRFKPLFRIHLMERKAATVECMYGHKGPHHGHIQIVKKDEFSTKCNQTDHHRMSGGRQEEFRTWLREEWGRTLEDIFHEHMQELILMKFIYTSQYDNCLTYRRIYLPPSRPDDLIKPGLFKGTYGSHGLEIVMLSFHGRRARGTKITGDPNIPAGQQTVEIDLRHRIQLPDLENQRNFNELSRIVLEVRERVRQEQQEGGHEAGEGRGRQGPRESQPSPAQPRAEAPSKGPDGTPGEDGGEPGDAVAAAEQPAQCGQGQPFVLPVGVSSRNEDYPRTCRMCFYGTGLIAGHGFTSPERTPGVFILFDEDRFGFVWLELKSFSLYSRVQATFRNADAPSPQAFDEMLKNIQSLTS
B5: Myc-FBXO7-ΔUBL (domain or fragment, UniProt Q9Y3I1 75-522)
chain: CLILQDDIPAPNIPSSTDSEHSSLQNNEQPSLATSSNQTSMQDEQPSDSFQGQAAQSGVWNDDSMLGPSQNFEAESIQDNAHMAEGTGFYPSEPMLCSESVEGQVPHSLETLYQSADCSDANDALIVLIHLLMLESGYIPQGTEAKALSMPEKWKLSGVYKLQYMHPLCEGSSATLTCVPLGNLIVVNATLKINNEIRSVKRLQLLPESFICKEKLGENVANIYKDLQKLSRLFKDQLVYPLLAFTRQALNLPDVFGLVVLPLELKLRIFRLLDVRSVLSLSAVCRDLFTASNDPLLWRFLYLRDFRDNTVRVQDTDWKELYRKRHIQRKESPKGRFVMLLPSSTHTIPFYPNPLHPRPFPSSRLPPGIIGGEYDQRPTLPYVGDPISSLIPGPGETPSQFPPLRPRFDPVGPLPGPNPILPGRGGPNDRFPFRPSRGRPTDGRLSFM
B6: Myc-FBXO7-1-381 aa (domain or fragment, UniProt Q9Y3I1 1-381)
chain: MRLRVRLLKRTWPLEVPETEPTLGHLRSHLRQSLLCTWGYSSNTRFTITLNYKDPLTGDEETLASYGIVSGDLICLILQDDIPAPNIPSSTDSEHSSLQNNEQPSLATSSNQTSMQDEQPSDSFQGQAAQSGVWNDDSMLGPSQNFEAESIQDNAHMAEGTGFYPSEPMLCSESVEGQVPHSLETLYQSADCSDANDALIVLIHLLMLESGYIPQGTEAKALSMPEKWKLSGVYKLQYMHPLCEGSSATLTCVPLGNLIVVNATLKINNEIRSVKRLQLLPESFICKEKLGENVANIYKDLQKLSRLFKDQLVYPLLAFTRQALNLPDVFGLVVLPLELKLRIFRLLDVRSVLSLSAVCRDLFTASNDPLLWRFLYLRDFR

The assay concerns the target FLAG-INF2 (INF2-CAXX, ER-localized inverted formin 2) (UniProt Q27J81). Description: co-IP; anti-FLAG M2 agarose beads, lysates (RIPA (Low) Lysis Buffer) of HEK-293T cells transfected with both constructs, 20 μM MG132 for 8 h before harvesting; 4 h at 4 °C; washed with BC100 buffer (20 mM Tris-Cl pH 7.9, 100 mM NaCl, 0.2 mM EDTA, 20% glycerol) with 0.2% Triton X-100; eluted with FLAG peptide; western blotting.
As to B1, the binding entry is listed as “binds”.
In the case of B2, the binding result is listed as “no binding”.
As for B3, the entry is “binds”; as for B4, “no binding”.
As for B5, the entry is “no binding”; as for B6, “binds”.
